“Also recorded” adds a separate entry of the source.
What was measured:
N6/ADR cells [1] = test: Cytotoxicity potency assay (antibody titrated, vincristine constant); type: cell-based
Protocol: The relative potency of the samples was evaluated using N6/ADR cells. These cells expressed both ABCB1 and CD47 with the expression of CD47 ˜40-fold higher than ABCB1 as determined by staining with R-phycoerythrin (R-PE) conjugated, commercially available antibodies against ABCB1 (UIC2, Biolegend) and CD47 (CC2C6, Biolegend). This assay also examined the effect of antibodies on vincristine-induced cytotoxicity using the drug-resistant cell line, N6/ADR. However, in this assay format the concentration of vincristine was held constant while the ABCB1 x CD47 BsAbs (or isotype control antibodies) were serially diluted. This assay measured antibody IC50. Lower IC50 meant higher antibody potency.
The potency assay was performed as follows. Cells were plated in 0.05 mL of assay media at 5000 cells/well in white flat bottom 96-well tissue culture plates and incubated overnight at 37° C., 5% CO2. […] An equivalent volume (0.05 mL) diluted antibody/vincristine mixture was transferred to the N6/ADR cells and incubated at 37° C., in 5% CO^2. After 72 hours, plates were removed from the incubator and allowed to equilibrate to room temperature. Viability was assessed using the Promega® CellTiter-Glo® Luminescent Cell Viability Assay according to the manufacturer's recommended protocol.

N6/ADR cells [2] = test: Cytotoxicity screening assay (vincristine-induced cytotoxicity); conditions: N6ADR drug resistant cell-based leukemia assay
Protocol: The effect of antibodies on vincristine-induced cytotoxicity was evaluated using the drug-resistant N6/ADR cell line. In this assay, vincristine was serially diluted, while the ABCB1 x CD47 BsAbs (or isotype control antibodies) were used at a uniform, saturating concentration. The assay readout was vincristine IC50 in the presence or absence of antibodies. Inhibition of ABCB1 should result in a lower vincristine IC50.
The assay was performed as follows: cells were plated in 0.05 mL of assay media (RPMI-1640+10% FBS) at 5000 cells/well in white, flat bottom 96-well tissue culture plates and incubated overnight at 37° C., 5% CO2. The following day vincristine was prepared at 2X final assay concentration by 1:5 or 1:10 serial dilutions in screening assay media containing test antibodies or control antibodies at 100 μg/mL (2X final concentration), or valspodar, a small molecule ABCB1 inhibitor, at 7 pM (2X final concentration). An equivalent volume (0.05 mL) of the vincristine/antibody mixture was added to the N6/ADR cells and incubated at 37° C., in 5% CO2.
After 72 hours, plates were removed from the incubator and allowed to equilibrate to room temperature. Viability was assessed using the Promega® CellTiter-Glo® Luminescent Cell Viability Assay according to the manufacturer's recommended protocol.

human ABCB1 = target: T1, human ABCB1 (Homo sapiens, UniProt P08183); test: Efflux inhibition in ABCB1 over-expressing HEK 293T cells; type: cell-based; conditions: Paclitaxel treated HEK293T cells overexpressing ABCB1
T1 construct: expressed in transfected cells
Protocol: HEK 293T cells over-expressing human ABCB1 were washed several times and aliquoted into 96-well plates as 50 I aliquots/well at a cell density of 2×10^6 cells per ml in phenol red-free Dulbecco's Modified Eagle's Medium (DMEM). Cells were mixed with 50 I aliquots of antibodies and 10 1 6 μM Calcein AM, and incubated for 2 h at 37° C. The cells were then washed twice and finally resuspended in 200 μl PBS. Calcein AM fluorescence retained in the cells was measured by flow cytometry. Efflux blockade was measure using the Multidrug Resistance Direct Dye Efflux Assay (Chemicon) following the manufacturer's protocol.

MES-SA/Dx5 cells = test: In vivo anti-tumor effects on MES-SA/Dx5 multidrug resistance xenograft model; set-up: species or system athymic nude mice
Protocol: MES-SA/Dx5 cells were grown in RPMI-1640 supplemented with 10% FBS and 100 nM doxorubicin. Prior to implant cells were washed three times with D-PBS and resuspended in the same. Resuspended cells were mixed with an equal volume of Matrigel and xenografts were established by sub-cutaneous injection of 0.5×10^6 tumor cells into 5-8-week-old female athymic nude mice. Tumors were measured three times a week using a calibrated digital caliper, and tumor volumes (TV) were calculated as per the formula: TV=/*L*S*S, where L is the long axis and s is the short axis of the tumor. Once tumors reached 100-150 mm^3, mice were randomized into twelve groups of five mice each-(i) Control isotype IgG1 3 mg/kg, (ii) Control isotype IgG1 3 mg/kg and 20 mg/kg of paclitaxel, (iii) KNJYBisP1.1 3 mg/kg, (iv) KNJYBisP1.1 3 mg/kg and 20 mg/kg of paclitaxel, (v and vi) 15D3 HIR2/KT14 KbR1/B1.89v1.huL1(KV2) Bispecific 3 mg/kg, (vii and viii) 15D3 HIR2/KT14 KbR1/B1.89v1.huL1(KV2) Bispecific 3 mg/kg and 20 mg/kg of paclitaxel, (ix) 15D3hmz16-1 KK/KT14 DD/MRK16v4a1 Bispecific 3 mg/kg, (x) 15D3hmz16-1 KK/KT14 DD/MRK16v4a1 Bispecific 3 mg/kg and 20 mg/kg of paclitaxel, (xi) 15D3 HIR2/KT14 KbR1/B1VL6/CDR3v2a Bispecific 3 mg/kg, (xii) 15D3 HIR2/KT14 KbR1/B1VL6/CDR3v2a Bispecific 3 mg/kg and 20 mg/kg of paclitaxel.
Antibody and paclitaxel were dosed intraperitoneally twice a week for two consecutive weeks. […]

B1: KB1-1420: humanized ABCB1XCD47 bispecific antibody, HIR2/KbR1 Fc, B1.89v1.huL1(KV2) common light chain (antibody)
heavy 1: EVQLVESGGVVVQPGGSLRLSCAASGFTFSRYTMSWVRQAPGKGLEWVATISSGGGNTYYPDSVKGRFTVSRDNSKNSLYLQMNSLRTEDTALYYCARYGAGDAWFAYWGQGTLVTVSSASTKGPSVFPLAPSSKSTSGGTAALGCLVKDYFPEPVTVSWNSGALTSGVHTFPAVLQSSGLYSLSSVVTVPSSSLGTQTYICNVNHKPSNTKVDKRVEPKSCDKTHTCPPCPAPELLGGPSVFLFPPKPKDTLMISRTPEVTCVVVDVSHEDPEVKFNWYVDGVEVHNAKTKPREEQYNSTYRVVSVLTVLHQDWLNGKEYKCKVSNKALPAPIEKTISKAKGQPREPQVCTLPPSREEMTKNQVSLSCAVKGFYPSDIAVEWESNGQPENNYKTTPPVLDSDGSFVLVSKLTVDKSRWQQGNVFSCSVMHEALHNHYTQKSLSLSPG
heavy 2: QVQLVQSGAEVKKPGASVKVSCKASGYTFTNYNMHWVRQAPGQRLEWMGTIYPGNDDTSYNQKFKDRVTITADTSASTAYMELSSLRSEDTAVYYCARGGYRAMDYWGQGTLVTVSSASTKGPSVFPLAPSSKSTSGGTAALGCLVKDYFPEPVTVSWNSGALTSGVHTFPAVLQSSGLYSLSSVVTVPSSSLGTQTYICNVNHKPSNTKVDKRV[human IgG1 Fc with changes omitted]
light: DIVMTQSPLSLPVTPGEPASISCRSSQTIVHSNGNTYLEWYLQKPGQSPQLLIYKVSKRFSGVPDRFSGSGSGTDFTLKISRVEAEDVGVYYCFQASHFPRTFGQGTKLEIKRTVAAPSVFIFPPSDEQLKSGTASVVCLLNNFYPREAKVQWKVDNALQSGNSQESVTEQDSKDSTYSLSSTLTLSKADYEKHKVYACEVTHQGLSSPVTKSFNRGEC
- potency increasing cytotoxicity (N6/ADR cells [1]): potency similar to that of the bispecific antibody KBisP1.1
- in vitro potency (cell killing) (N6/ADR cells [2]): significant in vitro potency
- efflux inhibition (human ABCB1): clear efflux inhibition
- tumor growth inhibition / activity as a single agent (MES-SA/Dx5 cells; 3 mg/kg i.p., listed as 15D3 HIR2/KT14 KbR1/B1.89v1.huL1 (KV2) hmz LC, 3 mg/kg): significantly inhibited tumor growth; also recorded: efficacious; also recorded: significant single agent activity
- tumor growth inhibition in combination with paclitaxel (MES-SA/Dx5 cells; 3 mg/kg plus paclitaxel 20 mg/kg): significantly inhibited tumor growth
